Laboratory results from PubChem BioAssay AID1476 (National Center for Advancing Translational Sciences (NCATS), 2009).
Values joined by “and” are separate entries in the source; they are usually repeats but may differ in a detail not shown here. Equal values may be shown once. The whole screen tested about 200,000 compounds, of which about 4,500 (2.2%) were called active. The inconclusive results got no clear call from the source; some entries with a clear call stand among them for comparison. Calls follow the shape of the dose curve; as a rule, active = well fitted inhibition curve with a large enough effect; inconclusive = small, poorly fitted or top-dose-only effect, or effect the other way; inactive = flat fitted curve, though single readings scatter. Potencies beside an inconclusive call are fits to weak or partial responses and may not hold up.

These compounds were tested against Cruzipain (Trypanosoma cruzi) (UniProt P25779) (assay: qHTS Assay for Promiscuous and Specific Inhibitors of Cruzain (without detergent)). Details: purified cruzain, Z-FR-AMC fluorescence, no detergent.
Sequence of UniProt P25779 (P25779 whole entry, looked up): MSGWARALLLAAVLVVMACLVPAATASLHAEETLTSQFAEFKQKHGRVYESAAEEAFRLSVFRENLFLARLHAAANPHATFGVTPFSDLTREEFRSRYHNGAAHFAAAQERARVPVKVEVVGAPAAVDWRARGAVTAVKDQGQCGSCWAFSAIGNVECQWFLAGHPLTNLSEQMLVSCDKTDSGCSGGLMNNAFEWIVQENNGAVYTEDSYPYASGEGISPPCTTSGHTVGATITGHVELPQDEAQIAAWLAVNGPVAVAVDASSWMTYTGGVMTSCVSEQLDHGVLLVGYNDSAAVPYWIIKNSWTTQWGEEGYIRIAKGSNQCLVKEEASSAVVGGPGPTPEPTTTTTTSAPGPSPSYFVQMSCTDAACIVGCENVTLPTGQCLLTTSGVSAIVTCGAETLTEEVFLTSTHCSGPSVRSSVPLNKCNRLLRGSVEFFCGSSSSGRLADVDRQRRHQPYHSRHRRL
In short: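 Detergent-free condition (0.00005% Triton X-100) in acetate buffer pH 5.5 with DTT. 1.5 nM enzyme and compound were pre-mixed 15 min, then 2 uM Z-FR-AMC substrate added; reaction progress from fluorescence change between first and third reads (60 s).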
Also: nearly all actives have a fitted effect of over 40% in size.
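For max response, negative = inhibition in this document: plate controls were enzyme without inhibitor for no effect and buffer without enzyme for full effect.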
Potency is read from the fitted curve at half-maximal effect; tags tell the direction and shape of the fitted curve.

Structure (SMILES)	Potency	max response, negative = inhibition
Cc1cc2nc3c(=O)[nH]c(=O)nc-3n(C)c2cc1C=O	inconclusive: 20 µM [inhibitor, single point]	
O=C(Nc1ccc(-c2nc3ccccc3o2)c(O)c1)c1cc(-n2cnnc2)ccc1Cl	inconclusive: 25.1 µM [activator, single point]	
COc1cccc(C(=O)NC(=NCCc2c[nH]c3ccc(OC)cc23)Nc2nc(C)cc(C)n2)c1		inactive: -22.7%
COc1ccc(Cn2c(SCc3cc(C)ccc3C)nc3cc(OC)c(OC)cc3c2=N)cc1	inconclusive: 31.6 µM [inhibitor, single point]	
CCOC(=O)c1cnn(-c2ccc(Cl)cc2)c1C1CCN(C(=O)OC(C)(C)C)CC1	inconclusive: 25.1 µM [activator, single point]	
CCc1ccc(NC(=O)CSc2nc3c(oc4ccccc43)c(=O)n2-c2cccc(C)c2)cc1	inconclusive: 3.98 µM [inhibitor, full curve, poor fit]	
O=C(NCc1ccco1)C1CCC(CNS(=O)(=O)c2cccc3cccnc23)CC1 (configuration not stated)		inactive: -2.53%
COc1ccc(S(=O)(=O)NCCS(=O)(=O)N2CCN(c3ccccc3)CC2)cc1OC		inactive: -5.94%
Cc1ccc(NC(=O)c2oc3ccccc3c2NC(=O)c2ccc(F)c(F)c2)cc1	inconclusive: 39.8 µM [inhibitor, single point]	
COc1ccc(NC(=O)c2oc3ccccc3c2NC(=O)C23CC4CC(CC(C4)C2)C3)c(OC)c1	inconclusive: 3.98 µM [inhibitor, single point]	
c1ccc(N2CCN(c3nc(NCc4ccco4)c4ccccc4n3)CC2)cc1	inconclusive: 39.8 µM [inhibitor, single point]	
COc1ccc2c(c1)c(CC(=O)Nc1ccc(C(C)=O)cc1)c(C)n2C(=O)c1ccc(Cl)cc1	inconclusive: 31.6 µM [inhibitor, single point] and inconclusive: 25.1 µM [inhibitor, single point]	
C[C@@H](C(=O)Nc1ccc2ccccc2c1)[C@H]1C[C@]1(C)[C@H](NS(=O)(=O)c1ccc(-c2ccccc2)cc1)c1ccccc1	active: 7.94 µM and active: 3.16 µM	
CCOc1ccc(NC(=O)CCc2nc3cccnc3n2-c2ccccc2)cc1		inactive: -6.08%
CCCC(=O)Nc1cc(OCC)c(NC(=O)NC2CCCCC2)cc1OCC	inconclusive: 31.6 µM [inhibitor, single point]	
Cc1ccc(C)c(N2CCN(C(=O)CCNS(=O)(=O)c3ccc4c(c3)CCN4C(=O)C3CC3)CC2)c1	inconclusive: 39.8 µM [activator, single point]	
O=C(Nc1ccn(Cc2c(F)c(F)c(F)c(F)c2F)n1)c1ccc(COc2ccccc2Cl)cc1	inconclusive: 39.8 µM [inhibitor, single point]	
COc1ccc(C(=O)Nc2cc(OC)c(NC(=O)c3ccco3)cc2OC)cc1	inconclusive: 39.8 µM [activator, single point]	
CCn1c(=O)c(C(=O)Nn2c(C)nc3ccccc3c2=O)c(O)c2ccccc21	inconclusive: 39.8 µM [activator, single point]	

Structure (SMILES)	Potency	max response, negative = inhibition
O=C1/C(=C/c2cccs2)SC(=S)N1c1ccccc1	inconclusive: 39.8 µM [inhibitor, single point]	
Cc1cc(/C=C2\C(=O)NC(=O)N(c3cccc(Br)c3)C2=O)c(C)n1C	inconclusive: 39.8 µM [inhibitor, single point]	
COc1cc2c(cc1/C=C1/NC(=O)N(c3ccccc3)C1=O)OCO2		inactive: -27.8%
CC1CCN(C(=O)c2ccc3c(c2)N(Cc2ccccc2)C(=O)c2ccccc2S3(=O)=O)CC1		inactive: 1.73%
COc1ccccc1N(CC(=O)Nc1ccc(S(=O)(=O)N2CCCCC2)cc1)S(C)(=O)=O	inconclusive: 31.6 µM [activator, single point]	
CSc1cc2c(cc1C(F)(F)F)N(C(=O)Nc1cccnc1)CC2	active: 7.94 µM	
O=C(C1CCN(C2CC(=O)N(Cc3ccccc3)C2=O)CC1)N1CCCCCC1 (configuration not stated)	inconclusive: 25.1 µM [activator, single point]	
CCn1cc(C(=O)O)c(=O)c2cc(F)c(N3CCN(S(=O)(=O)c4ccc(Br)cc4)CC3)cc21	inconclusive: 5.01 µM [activator, single point]	
CCOc1ccc(C(=O)NC(=S)Nc2cccc(NC(=O)c3ccco3)c2)cc1[N+](=O)[O-]	inconclusive: 12.6 µM [inhibitor, single point]	
COc1ccc(-n2nnc(-c3nsc(NC(=O)c4ccc(C)c(C)c4)n3)c2C)cc1Cl	inconclusive: 31.6 µM [inhibitor, single point]	
CCOC(=O)c1cnc2c(OC)cccc2c1N1CCN(c2ccc(OC)cc2)CC1	inconclusive: 31.6 µM [activator, single point]	
CCOCCCNC(=O)C(c1ccc(C)cc1)N(Cc1ccc2c(c1)OCO2)C(=O)CNC(C)=O (configuration not stated)	inconclusive: 31.6 µM [activator, single point]	
O=S(=O)(/N=C(/Nc1ccc(F)cc1F)c1ccc(Cl)cc1)c1ccccc1	inconclusive: 25.1 µM [inhibitor, single point]	
Cc1ccc(COCC(CC(C)C)N2CCN(C(=O)c3cccc(C(F)(F)F)c3)CCC2=O)cc1 (configuration not stated)	inconclusive: 31.6 µM [activator, single point]	
CC(=O)Nc1ccc(N2C(C(C)=O)=NN(c3ccc(Cl)cc3)C2c2sccc2C)cc1 (configuration not stated)	inconclusive: 31.6 µM [activator, single point]	
Cc1cccc(C)c1OC(=O)CSc1nnc(CNC(=O)c2ccccc2)o1	inconclusive: 6.31 µM [activator, single point]	
Cc1ccc(NC(=O)CN(c2ccc(Cl)cc2)S(=O)(=O)c2cc([N+](=O)[O-])ccc2Cl)cc1	inconclusive: 12.6 µM [inhibitor, single point]	
CCOc1ccc(C(=O)c2cn(CC(=O)Nc3ccc4c(c3)OCCO4)c3ccc(F)cc3c2=O)cc1		inactive: -16.6%
